Measurements from article PMC9911399, “Two distinct binding modes provide the RNA-binding protein RbFox with extraordinary sequence specificity”.
Substitutions are numbered along the chain they refer to; changes in the protein carry UniProt numbers. The list shows a part of the results.

T1: RBFOX1 RRM (Homo sapiens, UniProt Q9NWB1 109-208)
T1 sequence: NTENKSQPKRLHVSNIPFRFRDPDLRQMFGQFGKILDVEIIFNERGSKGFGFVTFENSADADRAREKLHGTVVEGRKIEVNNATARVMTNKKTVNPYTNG

B1: GAACUAU (DNA:RNA)
RNA: GGGAGACCGGAAUUCAGAUUGUCCGAACUAUUUAAAUCCCGUCGUAGCCACCA
DNA 1: CAATCTGAATTCCGGTCTCCC
DNA 2: TGGTGGCTACGACGGGATT
B2: UACCUGU (DNA:RNA)
RNA: B1 RNA with G25U, A27C, A30G
DNA 1: CAATCTGAATTCCGGTCTCCC
DNA 2: TGGTGGCTACGACGGGATT
B3: UUAAGUC (DNA:RNA)
RNA: B1 RNA with G25U, A26U, C28A, U29G, A30U, U31C
DNA 1: CAATCTGAATTCCGGTCTCCC
DNA 2: TGGTGGCTACGACGGGATT
B4: UAUCCUG (DNA:RNA)
RNA: B1 RNA with G25U, A27U, U29C, A30U, U31G
DNA 1: CAATCTGAATTCCGGTCTCCC
DNA 2: TGGTGGCTACGACGGGATT
B5: GGAGCUC (DNA:RNA)
RNA: B1 RNA with A26G, C28G, U29C, A30U, U31C
DNA 1: CAATCTGAATTCCGGTCTCCC
DNA 2: TGGTGGCTACGACGGGATT
B6: GGCGCGC (DNA:RNA)
RNA: B1 RNA with A26G, A27C, C28G, U29C, A30G, U31C
DNA 1: CAATCTGAATTCCGGTCTCCC
DNA 2: TGGTGGCTACGACGGGATT
B7: GUUUGUU (DNA:RNA)
RNA: B1 RNA with A26U, A27U, C28U, U29G, A30U
DNA 1: CAATCTGAATTCCGGTCTCCC
DNA 2: TGGTGGCTACGACGGGATT
B8: GCCACUU (DNA:RNA)
RNA: B1 RNA with A26C, A27C, C28A, U29C, A30U
DNA 1: CAATCTGAATTCCGGTCTCCC
DNA 2: TGGTGGCTACGACGGGATT
B9: UGUUACC (DNA:RNA)
RNA: GGGAGACCGGAAUUCAGAUUGUCCUGUUACCUUAAAUCCCGUCGUAGCCACCA
DNA 1: CAATCTGAATTCCGGTCTCCC
DNA 2: TGGTGGCTACGACGGGATT
B10: ACGUCGG (DNA:RNA)
RNA: B9 RNA with U25A, G26C, U27G, A29C, C30G, C31G
DNA 1: CAATCTGAATTCCGGTCTCCC
DNA 2: TGGTGGCTACGACGGGATT
B11: CGGCCCC (DNA:RNA)
RNA: B9 RNA with U25C, U27G, U28C, A29C
DNA 1: CAATCTGAATTCCGGTCTCCC
DNA 2: TGGTGGCTACGACGGGATT
B12: UUGGCAG (DNA:RNA)
RNA: B1 RNA with G25U, A26U, A27G, C28G, U29C, U31G
DNA 1: CAATCTGAATTCCGGTCTCCC
DNA 2: TGGTGGCTACGACGGGATT
B13: GCCCGGU (DNA:RNA)
RNA: B1 RNA with A26C, A27C, U29G, A30G
DNA 1: CAATCTGAATTCCGGTCTCCC
DNA 2: TGGTGGCTACGACGGGATT
B14: GUUGUCG (DNA:RNA)
RNA: B1 RNA with A26U, A27U, C28G, A30C, U31G
DNA 1: CAATCTGAATTCCGGTCTCCC
DNA 2: TGGTGGCTACGACGGGATT
B15: GUUAUUC (DNA:RNA)
RNA: B1 RNA with A26U, A27U, C28A, A30U, U31C
DNA 1: CAATCTGAATTCCGGTCTCCC
DNA 2: TGGTGGCTACGACGGGATT
B16: GGUUUCG (DNA:RNA)
RNA: B9 RNA with U25G, A29U, C31G
DNA 1: CAATCTGAATTCCGGTCTCCC
DNA 2: TGGTGGCTACGACGGGATT
B17: AAGUGCU (DNA:RNA)
RNA: B1 RNA with G25A, A27G, C28U, U29G, A30C
DNA 1: CAATCTGAATTCCGGTCTCCC
DNA 2: TGGTGGCTACGACGGGATT
B18: GCGGCUC (DNA:RNA)
RNA: B1 RNA with A26C, A27G, C28G, U29C, A30U, U31C
DNA 1: CAATCTGAATTCCGGTCTCCC
DNA 2: TGGTGGCTACGACGGGATT
B19: UGCGAUC (DNA:RNA)
RNA: B9 RNA with U27C, U28G, C30U
DNA 1: CAATCTGAATTCCGGTCTCCC
DNA 2: TGGTGGCTACGACGGGATT
B20: CACGUCU (DNA:RNA)
RNA: B1 RNA with G25C, A27C, C28G, A30C
DNA 1: CAATCTGAATTCCGGTCTCCC
DNA 2: TGGTGGCTACGACGGGATT

Biological target: T1, RBFOX1 RRM
Assay: EMSA; HiTS-Eq, 1 nM pool, 10 min; buffer printed only for the single-RNA assays: 10 mM Tris pH 7.5, 150 mM NaCl, 3.4 mM EDTA, 0.001% NP-40, 30 C
Conditions: tags: His6 N-terminal (pET28a); label: 5' 32P
How it was run: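 Purified RbFox RRM (wild type or mutant) was equilibrated for 10 min in 50 µL with 1 nM of a 5′-radiolabelled pool of RNA with 7 randomized nucleotides, its flanks annealed to DNA oligonucleotides, across increasing protein concentrations. Free RNA was separated by 8% native PAGE, excised, reverse-transcribed, PCR-barcoded and sequenced on an Illumina HiSeq 2500. Relative association constants came from read-count changes of each variant against the control reaction, normalised to the cognate motif.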

Binder	binding signal
B1	0.00748 KA relative to UGCAUGU
B2	0.0129 KA relative to UGCAUGU
B3	0.0107 KA relative to UGCAUGU
B4	0.00862 KA relative to UGCAUGU
B5	0.0188 KA relative to UGCAUGU
B6	0.019 KA relative to UGCAUGU
B7	0.0276 KA relative to UGCAUGU
B8	0.00498 KA relative to UGCAUGU
B9	0.00783 KA relative to UGCAUGU
B10	0.0158 KA relative to UGCAUGU
B11	0.00959 KA relative to UGCAUGU
B12	0.0222 KA relative to UGCAUGU
B13	0.0179 KA relative to UGCAUGU
B14	0.0223 KA relative to UGCAUGU
B15	0.0122 KA relative to UGCAUGU
B16	0.0173 KA relative to UGCAUGU
B17	0.0139 KA relative to UGCAUGU
B18	0.0224 KA relative to UGCAUGU
B19	0.0166 KA relative to UGCAUGU
B20	0.00642 KA relative to UGCAUGU
